# Where a name gives a salt, the structure may show the parent alone. ± gives the standard deviation of the averaged measurements. Over roughly 2,600 compounds, “MBP+ mature oligodendrocyte number relative to DMSO vehicle control” has its median near -0.34; the highest 2% begin near 13. The list shows a part of the results.
# Test system: jimpy (Plp1 jimpy) mouse iPSC-derived oligodendrocyte progenitor cells
# Test: MBP+ mature oligodendrocyte number relative to DMSO vehicle control (SDs above negative control mean); higher = more surviving jimpy oligodendrocytes (rescue)
# Details: 10 µM; 3 days
# 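Further: 10 µM single dose with 3-day oligodendrocyte differentiation.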
row,Structure (SMILES),MBP+ mature oligodendrocyte number
1,Cc1ccc(S(=O)(=O)NC(=O)NN2CC3CCCC3C2)cc1 (stereo not drawn) [Gliclazide],-0.276
2,c1ccc(C(NCCNC(c2ccccc2)c2ccccc2)c2ccccc2)cc1,< -3.97
3,O=c1c(O)c(-c2cc(O)c(O)c(O)c2)oc2cc(O)cc(O)c12 [Myricetin],-1.47 ± 0.82
4,Cc1cc(Cn2cnc3c2CC(C(=O)O)N(C(=O)C(c2ccccc2)c2ccccc2)C3)ccc1N(C)C (stereo not drawn),0.998
5,O=c1[nH]c2ccccc2c2ccccc12 [6(5H)-Phenanthridinone],-0.783
6,C#CCN(C)Cc1ccccc1 [Pargyline hydrochloride],-0.39
7,COc1ccc2cc(CCC(C)=O)ccc2c1 [Nabumetone],1.84
8,Cc1cccc(/C=C/c2ccccc2)n1,-0.0684
9,CCn1cc(C(=O)O)c(=O)c2ccc(C)nc21 [Nalidixic acid sodium],-1.3
10,CCn1cc(C(=O)O)c(=O)c2ccc(C)nc21 [Nalidixic acid],0.0594
11,COc1ccc(-c2oc3c(CC=C(C)C)c(O[C@@H]4O[C@H](CO)[C@@H](O)[C@H](O)[C@H]4O)cc(O)c3c(=O)c2O[C@@H]2O[C@@H](C)[C@H](O)[C@@H](O)[C@H]2O)cc1 [Icariin],-0.108
12,C[C@H]1[C@@H](O)O[C@@H]2O[C@@]3(C)CC[C@H]4[C@H](C)CC[C@@H]1[C@@]24OO3 [Dihydroartemisinin (DHA)],-3.91
13,CCO[C@@H]1OC(=O)C[C@@H]1NC(=O)[C@@H]1CCCN1C(=O)[C@@H](NC(=O)c1ccc(N)c(Cl)c1)C(C)(C)C,0.227
14,CCN(CC)CCNC(=O)c1cc(S(C)(=O)=O)ccc1OC [Tiapride hydrochloride],0.00298
15,O=C(CCCN1CC=C(n2c(=O)[nH]c3ccccc32)CC1)c1ccc(F)cc1 [Droperidol],0.233 ± 0.23
16,CCCC(=O)O[C@]1(C(=O)COC(C)=O)CC[C@H]2[C@@H]3C[C@H](F)C4=CC(=O)C=C[C@]4(C)[C@@]3(F)[C@@H](O)C[C@@]21C [Difluprednate],10.7
17,Nc1ccc(C(=O)NCC(=O)O)cc1 [4-Aminohippuric Acid],1.85
18,COc1ccc(NS(=O)(=O)c2ccc(N)cc2)nn1 [Sulfamethoxypyridazine],2.52
19,OC[C@H]1O[C@@H](Oc2ccc(O)cc2)[C@H](O)[C@@H](O)[C@@H]1O [Arbutin],-0.388
20,O=C(c1ccc(C(=O)N2CCC(N3CCCC3)CC2)c(Nc2ccccc2)c1)N1CCC(N2CCCC2)CC1,-0.945
21,OCCN1CCN(CCCN2c3ccccc3Sc3ccc(Cl)cc32)CC1 [Perphenazine],< -3.97
22,CN(C)CCc1c[nH]c2ccc(Cn3cncn3)cc12 [Rizatriptan Benzoate],-0.557
23,CN(C)CCc1c[nH]c2ccc(Cn3cncn3)cc12 [Rizatriptan benzoate salt],-0.0098
24,"NCCCCCCCCCCN [1,10-Diaminodecane]",1.5
25,CC(C)C[C@@H](C=O)NC(=O)[C@H](CC(C)C)NC(=O)[C@H](CC(C)C)NC(=O)OCc1ccccc1,< -6.01
26,"O=c1oc(Cl)c(Cl)c2ccccc12 [3,4-Dichloroisocoumarin]",0.555

row,Structure (SMILES),MBP+ mature oligodendrocyte number
1,COC1=CC(c2cc3ccccc3[nH]2)=N/C1=C\c1[nH]c(C)cc1C [Obatoclax Mesylate (GX15-070)],-6.44
2,N=C(N)NC(=N)N1CCOCC1 [Moroxydine HCl],-0.78
3,CC(C)(C#N)c1ccc(N2C(=O)OCc3cnc4ccc(-c5cnc6ccccc6c5)cc4c32)cc1,-4.4
4,CC(=O)Oc1cccc2c1C(=O)c1c(OC(C)=O)cc(C(=O)O)cc1C2=O [Diacerein],1.25
5,CCN(CC)Cc1ccc2cc(COC(=O)Nc3ccc(C(=O)NO)cc3)ccc2c1 [Givinostat (ITF2357)],< -4.81
6,COc1cc(OC)c(C=C2C(=O)Nc3ccccc32)c(OC)c1,-0.533
7,O=S(=O)(c1ccccc1)c1cnc2c(N3CCNCC3)cccc2c1,1.69
8,CC(C)C[C@H](NC(=O)[C@H](CCc1ccccc1)NC(=O)CN1CCOCC1)C(=O)N[C@@H](Cc1ccccc1)C(=O)N[C@@H](CC(C)C)C(=O)[C@@]1(C)CO1 [Carfilzomib (PR-171)],< -6.01
9,COc1ccc(C2(CNC(=O)c3ccc(NC(=O)c4ccco4)cc3)CCOCC2)cc1,-2.6
10,O=C(O[C@H]1CN2CCC1CC2)N1CCc2ccccc2[C@@H]1c1ccccc1 [Solifenacin succinate],-5.85
11,NC(=O)N/N=C/c1ccc([N+](=O)[O-])o1 [Nitrofural],0.613
12,CC1=CC(=O)NS(=O)(=O)O1 [Acesulfame Potassium],1.22
13,CN(C)CCC[C@@]1(c2ccc(F)cc2)OCc2cc(C#N)ccc21 [Escitalopram Oxalate],7.84
14,CN1CCCC(n2nc(Cc3ccc(Cl)cc3)c3ccccc3c2=O)CC1 (stereo not drawn) [Azelastine HCl],-4.25
15,CCN1CCN(C(=O)N[C@@H](C(=O)N[C@@H]2C(=O)N3[C@@H]2SC(C)(C)[C@@H]3C(=O)O)c2ccccc2)C(=O)C1=O [Piperacillin Sodium],-0.438
16,CN(NC(=O)CC(=O)NN(C)C(=S)c1ccccc1)C(=S)c1ccccc1 [Elesclomol (STA-4783)],1.16
17,CO[C@@H]1[C@@H](OC(N)=O)[C@@H](O)[C@H](Oc2ccc3c(O)c(NC(=O)c4ccc(O)c(CC=C(C)C)c4)c(=O)oc3c2C)OC1(C)C [Novobiocin Sodium],2.24
18,Nc1cc(C(Cl)=C(Cl)Cl)c(S(N)(=O)=O)cc1S(N)(=O)=O [Clorsulon],1.53
19,CC[C@H](C)C(=O)O[C@H]1CCC=C2C=C[C@H](C)[C@H](CC[C@@H]3C[C@@H](O)CC(=O)O3)[C@H]21 [Mevastatin],-4.55 ± 1.6
20,C[C@H](CCC(=O)O)[C@H]1CC[C@H]2[C@@H]3[C@H](O)C[C@@H]4C[C@H](O)CC[C@]4(C)[C@H]3CC[C@]12C [Chenodeoxycholic Acid],1.69
21,CC(=O)OCC(CCn1cnc2cnc(N)nc21)COC(C)=O [Famciclovir],-0.0511 ± 1.1
22,COc1ccc([C@@H]2CC(=O)c3c(O)cc(O[C@@H]4O[C@H](CO)[C@@H](O)[C@H](O)[C@H]4O[C@@H]4O[C@@H](C)[C@H](O)[C@@H](O)[C@H]4O)cc3O2)cc1O [Neohesperidin],0.283
23,NNc1nncc2ccccc12 [Hydralazine HCl],0.619
24,NNc1nncc2ccccc12 [Hydralazine hydrochloride],0.712
25,C=CC(=O)Nc1cccc(Oc2nc(Nc3ccc(N4CCN(C)CC4)cc3OC)ncc2Cl)c1,< -6.7
26,O=C(/C=C/c1ccc(O)c(O)c1)OCCc1ccccc1 [Caffeic Acid Phenethyl Ester],-4.64

row,Structure (SMILES),MBP+ mature oligodendrocyte number
1,O=C(/C=C/c1ccc(O)c(O)c1)OCCc1ccccc1 [Caffeic acid phenethyl ester],< -3.34
2,CN1CCN(CCCN2c3ccccc3Sc3ccc(Cl)cc32)CC1 [Prochlorperazine dimaleate],< -3.85
3,Cc1nc(=O)c2cc(CN(C)c3ccc(C(=O)N[C@@H](CCC(=O)O)C(=O)O)s3)ccc2[nH]1 [Raltitrexed],0.982
4,O=C1c2ccccc2C(=O)c2c1ccc(O)c2O [Alizarin],0.339
5,N[C@@H]1[C@H]2CN(c3nc4c(cc3F)c(=O)c(C(=O)O)cn4-c3ccc(F)cc3F)C[C@@H]12 [Trovafloxacin mesylate],1.88
6,CC(/C=C1\SC(=S)N(CC(=O)O)C1=O)=C\c1ccccc1 [Epalrestat],-0.174 ± 1.1
7,CS(=O)(=O)N1CCc2c(-c3cnc(N)nc3)nc(N3CCOCC3)nc21,< -6.01
8,Cn1ccc2cc(NC(=O)Nc3cccnc3)ccc21,-0.158
9,CC(=O)[C@]1(O)Cc2c(O)c3c(c(O)c2[C@@H](O[C@H]2C[C@H](N)[C@H](O)[C@H](C)O2)C1)C(=O)c1ccccc1C3=O [Idarubicin],3.22
10,CC(=O)[C@]1(O)Cc2c(O)c3c(c(O)c2[C@@H](O[C@H]2C[C@H](N)[C@H](O)[C@H](C)O2)C1)C(=O)c1ccccc1C3=O [Idarubicin HCl],-1.46
11,O=S(=O)(O)NC1CCCCC1 [Cyclamic  acid],-1.25
12,COc1ccc([C@]2(C#N)CC[C@@H](C(=O)O)CC2)cc1OC1CCCC1 [Cilomilast],-0.676
13,COCC[n+]1c2c(n(Cc3cnccn3)c1C)C(=O)c1ccccc1C2=O [YM155 (Sepantronium Bromide)],< -6.7
14,O=C(NCCO)c1cccc(-c2cc(Nc3ccc(OC(F)(F)F)cc3)ncn2)c1,-0.394
15,Nc1ncnc2c1c(-c1ccc(Oc3ccccc3)cc1)cn2C1CCCC1,-0.91
16,O=c1[nH]c(=O)n(C2CCCO2)cc1F (stereo not drawn) [Tegafur],< -3.85
17,Cc1cc2c(F)c(Oc3ncnn4cc(OC[C@@H](C)OC(=O)[C@H](C)N)c(C)c34)ccc2[nH]1,-1.9
18,CCOC(=O)Nc1cc(-c2ccc(C)c(NS(C)(=O)=O)c2)nn2c(C)nnc12 [Bromosporine],-6.01
19,Nc1nc2ccc(Cl)cc2c2nc(-c3ccco3)nn12,2.65
20,CCC(C)N(C)C(=O)c1cc2ccccc2c(-c2ccccc2Cl)n1 (stereo not drawn),-0.236
21,Nc1nc2c(nc(Br)n2C2OC3COP(=O)(O)O[C@@H]3C2O)c(=O)[nH]1 (stereo partly drawn) [8-Bromo-cGMP sodium],-1.81
22,Nc1nc2n[nH]nc2c(=O)[nH]1 [Azaguanine-8],2.94
23,N[C@H](C(=O)O)[C@H](O)c1ccc(O)c(O)c1,0.108
24,CN(C)c1nc(N(C)C)nc(N(C)C)n1 [Altretamine],0.885 ± 0.75
25,COc1cc2c(cc1-c1c(C)noc1C)ncc1[nH]c(=O)n([C@H](C)c3ccccn3)c12,< -6.01
26,COc1cc2c(Oc3ccc4[nH]c(C)cc4c3F)ncnc2cc1OCCCN1CCCC1 [Cediranib (AZD2171)],< -6.7

# From the supplement of paper PMC6135742
